Test results from the supplement of paper PMC4967469.
By IC50 is meant the dose at which the fit gives 50% viability; where the fit passes the top or lowest dose, that dose stands as a limit. For AUC the same curve is integrated over the 256-fold range of doses and scaled to a fraction; values near 1 show little effect. For part of these data: An inferred top dose comes from the curve model; the source does not state it. For part of these data: Where an entry number is given, a second screen of the drug exists; the two often differ.

How the values were obtained:
Assay in all cases: Viability of human cancer cell lines after 72 h of drug (GDSC screen)
[1] = compound: C[C@]1(O)C[C@@H](c2nc(-c3ccc4ccc(-c5ccccc5)nc4c3)c3c(N)nccn32)C1 [OSI-906]; conditions: top dose 2.56 µM; top dose inferred
Procedure: (§1)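 Human cancer cell lines in 384-well plates, medium with 10% serum, drug for 72 h over a 256-fold dose range (nine 2-fold or five 4-fold steps up to the top dose). Adherent lines were fixed and stained with the nucleic acid dye Syto60, suspension lines read with resazurin; signal relative to control wells, capped at 0 and 100%. One two-parameter sigmoid per drug and line, fitted in a mixed model over all curves with the slope shared within a line.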

[2] = compound: CN1CCN(c2ccc([N+](=O)[O-])c3no[n+]([O-])c23)CC1 [NSC-207895]; conditions: top dose 20 µM; top dose inferred
Procedure: as §1

[3] = compound: CCOc1nc(NC(=O)Cc2cc(OC)ccc2OC)cc(N)c1C#N [JNK Inhibitor VIII]; conditions: top dose 10 µM; top dose inferred
Procedure: as §1

[4] = compound: COCC[n+]1c2c(n(Cc3cnccn3)c1C)C(=O)c1ccccc1C2=O [YM155]; conditions: top dose 5.12 µM
Procedure: as §1

[5] = compound: COC(=O)[C@H](CCSC)NC(=O)c1ccc(NC[C@@H](N)CS)cc1-c1ccccc1 [FTI-277]; conditions: top dose 1.024 µM; top dose inferred
Procedure: as §1

[6] = compound: c1ccc2c(CCNc3ccc(Nc4ccncc4)cc3)c[nH]c2c1 [JNJ-26854165]; conditions: top dose 10 µM
Procedure: as §1

[7] = compound: Cc1ccc(C(=O)N(CCCN)[C@@H](c2nc3cc(Cl)ccc3c(=O)n2Cc2ccccc2)C(C)C)cc1 [SB-715992]; conditions: top dose 0.128 µM; top dose inferred
Procedure: as §1

[8] = compound: Cc1sc2c(c1C)C(c1ccc(Cl)cc1)=N[C@@H](CC(=O)OC(C)(C)C)c1nnc(C)n1-2 [JQ1]
Procedure: as §1

[9] = compound: CC1(C)CNc2cc(NC(=O)c3cccnc3NCc3ccncc3)ccc21 [AMG-706]; conditions: top dose 2 µM; top dose inferred
Procedure: as §1

[10] = compound: O=C(/C=C/c1cccc(S(=O)(=O)Nc2ccccc2)c1)NO [Belinostat]; conditions: top dose 20 µM; top dose inferred
Procedure: as §1

[11] = top dose 1 µM, screen: GDSC drug entry 1218, top dose inferred
[12] = top dose 2.56 µM, screen: GDSC drug entry 163

Cell Line | AUC [1] | IC50 [1] | AUC [2] | IC50 [2] | AUC [3] | IC50 [3] | AUC [4] | IC50 [4] | AUC [5] | IC50 [5] | AUC [6] | IC50 [6] | AUC [7] | IC50 [7] | AUC [8, 11] | IC50 [8, 11] | AUC [8, 12] | IC50 [8, 12] | AUC [9] | IC50 [9] | AUC [10] | IC50 [10]
8505C (thyroid, adherent) | 0.953 | > 2.56 µM | 0.692 | 4.49 µM | 0.935 | > 10 µM | 0.07 | < 0.02 µM | 0.967 | > 1.02 µM | 0.831 | 6.86 µM | 0.925 | > 0.128 µM | 0.983 | > 1 µM | 0.701 | 0.612 µM | 0.945 | > 2 µM | 0.424 | 0.764 µM
23132-87 (stomach, adherent) | 0.961 | > 2.56 µM | 0.881 | > 20 µM | 0.985 | > 10 µM | 0.212 | 0.0438 µM | 0.976 | > 1.02 µM | 0.887 | > 10 µM | 0.845 | 0.0977 µM | 0.985 | > 1 µM | 0.867 | 2.45 µM | 0.944 | > 2 µM | 0.404 | 0.677 µM
A172 (glioma, adherent) | 0.894 | > 2.56 µM | 0.982 | > 20 µM | 0.983 | > 10 µM | 0.284 | 0.0804 µM | 0.953 | > 1.02 µM | 0.861 | 7.97 µM | 0.961 | > 0.128 µM | 0.986 | > 1 µM | 0.899 | > 2.56 µM | 0.979 | > 2 µM | 0.481 | 1.11 µM
A427 (non-small cell lung carcinoma, adherent) | 0.888 | > 2.56 µM | 0.871 | 19.1 µM | 0.981 | > 10 µM | 0.106 | < 0.02 µM | 0.983 | > 1.02 µM | 0.856 | 8.2 µM | 0.94 | > 0.128 µM | 0.985 | > 1 µM | 0.751 | 0.849 µM | 0.979 | > 2 µM | 0.758 | 7.02 µM
A2780 (ovary, semi-adherent) | 0.919 | > 2.56 µM | 0.918 | > 20 µM | 0.964 | > 10 µM | 0.058 | < 0.02 µM | 0.932 | > 1.02 µM | 0.872 | > 10 µM | 0.573 | 0.0128 µM | 0.983 | > 1 µM | 0.708 | 0.634 µM | 0.971 | > 2 µM | 0.341 | 0.446 µM
AGS (stomach, adherent) | 0.988 | > 2.56 µM | 0.836 | 11.4 µM | 0.99 | > 10 µM | 0.046 | < 0.02 µM | 0.97 | > 1.02 µM | 0.8 | 4.28 µM | 0.904 | > 0.128 µM | – | – | 0.718 | 0.613 µM | 0.99 | > 2 µM | 0.395 | 0.666 µM
ASH-3 (thyroid, adherent) | 0.925 | > 2.56 µM | 0.946 | > 20 µM | 0.981 | > 10 µM | 0.445 | 0.226 µM | 0.988 | > 1.02 µM | 0.945 | > 10 µM | 0.985 | > 0.128 µM | 0.987 | > 1 µM | 0.779 | 1.04 µM | 0.983 | > 2 µM | 0.939 | > 20 µM
BCPAP (thyroid, adherent) | 0.959 | > 2.56 µM | 0.854 | 13.5 µM | 0.973 | > 10 µM | 0.054 | < 0.02 µM | 0.973 | > 1.02 µM | 0.892 | 9.82 µM | 0.98 | > 0.128 µM | 0.988 | > 1 µM | 0.676 | 0.47 µM | 0.974 | > 2 µM | 0.274 | 0.308 µM
BHY (head and neck, adherent) | 0.937 | > 2.56 µM | 0.939 | > 20 µM | 0.924 | > 10 µM | 0.037 | < 0.02 µM | 0.94 | > 1.02 µM | 0.924 | > 10 µM | 0.805 | 0.0649 µM | 0.961 | > 1 µM | 0.62 | 0.344 µM | 0.986 | > 2 µM | 0.372 | 0.555 µM
BPH-1 (prostate, adherent) | 0.914 | > 2.56 µM | 0.896 | > 20 µM | 0.944 | > 10 µM | 0.04 | < 0.02 µM | 0.934 | > 1.02 µM | 0.837 | 7.7 µM | 0.543 | 0.0106 µM | 0.961 | > 1 µM | 0.335 | 0.0525 µM | 0.915 | > 2 µM | 0.22 | 0.171 µM
C32 (melanoma, adherent) | 0.982 | > 2.56 µM | 0.984 | > 20 µM | 0.939 | > 10 µM | 0.655 | 0.888 µM | 0.985 | > 1.02 µM | 0.851 | 8.44 µM | 0.951 | > 0.128 µM | 0.985 | > 1 µM | 0.986 | > 2.56 µM | 0.9 | > 2 µM | 0.85 | 16.8 µM
CAL-12T (non-small cell lung carcinoma, adherent) | 0.82 | 1.71 µM | 0.849 | 17.9 µM | 0.983 | > 10 µM | 0.066 | < 0.02 µM | 0.966 | > 1.02 µM | 0.967 | > 10 µM | 0.717 | 0.0357 µM | 0.981 | > 1 µM | 0.91 | > 2.56 µM | 0.98 | > 2 µM | 0.493 | 1.2 µM
CAL-54 (kidney, adherent) | 0.912 | > 2.56 µM | 0.956 | > 20 µM | 0.965 | > 10 µM | 0.831 | 3.9 µM | 0.984 | > 1.02 µM | 0.875 | > 10 µM | 0.969 | > 0.128 µM | 0.981 | > 1 µM | 0.84 | 2.14 µM | 0.985 | > 2 µM | 0.623 | 2.87 µM
CAL-120 (breast, adherent) | 0.962 | > 2.56 µM | 0.839 | 19.8 µM | 0.976 | > 10 µM | 0.088 | < 0.02 µM | 0.937 | > 1.02 µM | 0.86 | > 10 µM | 0.962 | > 0.128 µM | 0.974 | > 1 µM | 0.77 | 1.26 µM | 0.949 | > 2 µM | 0.534 | 1.59 µM
CHL-1 (melanoma, adherent) | 0.981 | > 2.56 µM | 0.837 | 12.3 µM | 0.946 | > 10 µM | 0.024 | < 0.02 µM | 0.978 | > 1.02 µM | 0.909 | > 10 µM | 0.878 | 0.117 µM | 0.983 | > 1 µM | 0.477 | 0.139 µM | 0.984 | > 2 µM | 0.214 | 0.192 µM
COR-L23 (large cell lung carcinoma, adherent) | 0.966 | > 2.56 µM | 0.983 | > 20 µM | 0.956 | > 10 µM | 0.05 | < 0.02 µM | 0.964 | > 1.02 µM | 0.849 | 7.2 µM | 0.73 | 0.0353 µM | 0.967 | > 1 µM | 0.881 | > 2.56 µM | 0.963 | > 2 µM | 0.383 | 0.602 µM
ChaGo-K-1 (non-small cell lung carcinoma, adherent) | 0.943 | > 2.56 µM | 0.984 | > 20 µM | 0.95 | > 10 µM | 0.182 | 0.0292 µM | 0.98 | > 1.02 µM | 0.902 | > 10 µM | 0.841 | 0.111 µM | 0.983 | > 1 µM | 0.846 | 2.33 µM | 0.887 | > 2 µM | 0.629 | 3 µM
Detroit562 (head and neck, adherent) | 0.988 | > 2.56 µM | 0.985 | > 20 µM | 0.985 | > 10 µM | 0.284 | 0.0803 µM | 0.965 | > 1.02 µM | 0.863 | 8.1 µM | 0.963 | > 0.128 µM | 0.987 | > 1 µM | 0.715 | 0.629 µM | 0.984 | > 2 µM | 0.788 | 8.39 µM
EBC-1 (lung squamous cell carcinoma, adherent) | 0.975 | > 2.56 µM | 0.978 | > 20 µM | 0.958 | > 10 µM | 0.173 | 0.0277 µM | 0.937 | > 1.02 µM | 0.81 | 6.1 µM | 0.781 | 0.0601 µM | 0.978 | > 1 µM | 0.538 | 0.205 µM | 0.982 | > 2 µM | 0.641 | 3.23 µM
FADU (head and neck, adherent) | 0.988 | > 2.56 µM | 0.982 | > 20 µM | 0.97 | > 10 µM | 0.041 | < 0.02 µM | 0.969 | > 1.02 µM | 0.798 | 4.57 µM | 0.955 | > 0.128 µM | – | – | 0.784 | 1.05 µM | 0.924 | > 2 µM | 0.629 | 2.79 µM
GAMG (glioma, adherent) | 0.946 | > 2.56 µM | 0.966 | > 20 µM | 0.953 | > 10 µM | 0.028 | < 0.02 µM | 0.965 | > 1.02 µM | 0.872 | > 10 µM | 0.597 | 0.0149 µM | 0.983 | > 1 µM | 0.733 | 0.768 µM | 0.976 | > 2 µM | 0.263 | 0.253 µM
H2591 (mesothelioma, adherent) | 0.975 | > 2.56 µM | 0.934 | > 20 µM | 0.976 | > 10 µM | 0.576 | 0.548 µM | 0.934 | > 1.02 µM | 0.91 | > 10 µM | 0.979 | > 0.128 µM | 0.98 | > 1 µM | 0.787 | 1.49 µM | 0.953 | > 2 µM | 0.698 | 5.39 µM
